Results: the supplement of paper PMC3334620
Over roughly 33,000 sequences, “E-score (-0.5 to 0.5)” has its median near -0.012; the highest 2% begin near 0.29. Some of the results follow.

target: T1, Ybr033w (UniProt P38073); assay: PBM E-score (8-mer binding enrichment) (E-score (-0.5 to 0.5)); higher = stronger / more preferred TF binding; most listed sequences are background and not binding sites; settings: protein concentration: 200 nM; construct: GST-full length
T1 sequence: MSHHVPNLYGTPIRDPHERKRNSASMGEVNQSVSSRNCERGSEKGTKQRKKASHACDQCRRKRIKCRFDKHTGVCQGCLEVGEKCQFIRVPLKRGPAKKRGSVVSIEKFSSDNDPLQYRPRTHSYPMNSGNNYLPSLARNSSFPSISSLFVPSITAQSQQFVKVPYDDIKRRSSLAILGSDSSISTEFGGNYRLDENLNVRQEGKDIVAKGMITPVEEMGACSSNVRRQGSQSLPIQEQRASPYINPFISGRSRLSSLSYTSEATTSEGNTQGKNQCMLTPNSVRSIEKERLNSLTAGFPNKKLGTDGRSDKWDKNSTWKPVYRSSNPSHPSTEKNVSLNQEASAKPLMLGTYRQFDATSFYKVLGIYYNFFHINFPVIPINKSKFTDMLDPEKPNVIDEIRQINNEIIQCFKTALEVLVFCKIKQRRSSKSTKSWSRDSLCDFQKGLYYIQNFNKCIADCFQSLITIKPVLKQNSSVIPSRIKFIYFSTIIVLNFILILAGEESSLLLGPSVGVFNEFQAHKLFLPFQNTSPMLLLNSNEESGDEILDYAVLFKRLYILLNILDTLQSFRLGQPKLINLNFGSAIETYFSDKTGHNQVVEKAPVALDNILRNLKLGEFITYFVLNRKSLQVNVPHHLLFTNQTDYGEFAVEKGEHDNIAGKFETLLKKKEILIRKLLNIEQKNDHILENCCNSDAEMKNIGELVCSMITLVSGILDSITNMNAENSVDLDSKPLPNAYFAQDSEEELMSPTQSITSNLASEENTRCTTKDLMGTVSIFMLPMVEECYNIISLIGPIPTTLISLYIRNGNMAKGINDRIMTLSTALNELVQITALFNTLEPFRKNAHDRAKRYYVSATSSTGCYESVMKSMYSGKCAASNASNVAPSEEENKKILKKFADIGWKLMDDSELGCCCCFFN
Protocol: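 Universal 'all 10-mer' protein binding microarrays (Agilent AMADID 015681) probed with GST-tagged S. cerevisiae TFs (full-length or DBD) made by in vitro transcription/translation (PURExpress), about 100-200 nM. Bound TF was detected with fluorescent anti-GST. Each ungapped 8-mer (which stands for itself and its reverse complement) is scored by the PBM enrichment score (E-score), a modified Wilcoxon-Mann-Whitney statistic from -0.5 to +0.5, computed with the Universal PBM Analysis Suite. Scale: above 0.35 generally sequence-specific binding.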

Sequence | PBM E-score
TAGAGTAA | 0.227
GTTGGCAA | 0.0463
AGATCAAG | 0.149
AAGGTTCG | -0.0859
GCCTAACC | -0.124
TATGTGAA | -0.0515
CAAAGTCC | -0.0191
GCACATAA | 0.00793
CCCCTTCG | -0.317
CAGCGCCG | -0.228
CAGCAGAC | -0.106
CGGAGAAA | 0.39
AACCTGCC | -0.0858
CCAGGTAC | -0.147
ACGTATCA | 0.0624
CCGTGTCC | -0.204
AACTAATA | 0.298
CCAGGTAA | -0.0631
CAAAGCCG | -0.00452
GGGAATCA | 0.0407
ACAAAAGT | 0.0857
TAAAGGCA | 0.131
AAGGGACG | -0.22
CGAGTAGA | -0.00374
ACTTGATG | 0.218

Sequence | PBM E-score
ACAAAATC | 0.254
GGGTTGAA | -0.201
ATCAGTCC | -0.423
CCTTAAGG | 0.273
CGCATACG | -0.0753
ACCTGCGT | 0.00259
CGCTAGGA | -0.051
GATGGGGA | -0.187
AACCACAT | 0.00349
GAAGTAGC | -0.105
GGCCTTTA | -0.212
GTGGCCAA | 0.0246
GGGGGCGA | -0.35
AGTCTCAC | -0.0327
CATGAACG | -0.0887
CTGGCACC | -0.266
AATCGATT | 0.0284
CAGCCACA | 0.0002
CCCAAGCC | -0.171
CTGCGTAC | -0.21
ACACGTGC | -0.249
CAACGGTA | -0.111
ATAAGGAC | -0.0427
ACGGGAGC | -0.128
CACAGCAG | -0.148

Sequence | PBM E-score
TAGGTCCA | 0.0175
CCAGATGA | -0.109
AATACGTA | 0.179
TATCTTAA | 0.121
ATTATCAC | 0.162
ATTAGCAA | 0.219
ACCGCCGC | -0.142
AAAGGTTA | 0.0425
TATCGTAA | 0.135
ACCGCGTC | -0.0679
GGTGATAC | -0.0918
AAAAGCAG | -0.108
CACCGCAC | -0.299
GCATGGCA | -0.0442
ACGGGTAA | 0.0288
CAGCTTGG | -0.105
GCGAAACC | 0.108
GCGCCCAA | -0.0472
TCTATAGA | 0.172
AAAGGAAC | 0.163
GAGGCCCC | -0.354
AGGCCCAT | -0.318
CTAACCTC | 0.115
CCGAGAGC | -0.273
TATCAAAA | 0.162

Sequence | PBM E-score
ATATACAA | 0.268
GATCACAA | 0.0194
CTCGTCAC | 0.0546
ACTACATC | 0.0912
GAAACGGC | -0.0362
CAACTTTA | 0.244
GCCCGAGA | 0.0314
CCAAGCAC | -0.0119
AAATAATG | 0.227
CCGAATAC | 0.105
GGACGAAC | 0.00863
GCTAAGCA | -0.0595
CACATTGA | 0.0793
AACGTAGT | 0.0865
ATATGGTA | 0.11
CGTTGTAA | -0.0617
ACCCTGGC | -0.23
GTAAGATA | 0.0869
GCCGGTCA | -0.264
GGTGTTAA | 0.00765
CGAGTTAC | 0.111
ACCATTGC | -0.0971
GCGAAACA | 0.0147
AGAGGTTC | 0.0157
CTCACGAG | -0.0974

Sequence | PBM E-score
CTCAATTC | -0.0331
ATCATGCA | -0.0407
GTGTGTAA | 0.0961
AGAACCAC | -0.00822
ACGATCGT | -0.115
GTGGGGAA | 0.0367
GGCCTGTA | -0.154
CCTCTTGA | 0.0387
CTGCGCAC | -0.0465
AAGGCCAT | -0.094
ACTTTTGG | 0.0216
AAACCGTG | -0.0939
GCCGCATA | 0.117
CCGTTACA | 0.102
CCTGCAGC | -0.0205
TATCCATA | 0.273
TGCCAACA | 0.0786
AGTTAGTG | 0.0411
AAATAGAT | 0.289
TATCGGGA | 0.0117
ACATCCCT | 0.0484
ATGTCCTA | -0.0661
TGTAGGAA | 0.0534
AAGAGCTG | -0.147
AGGTTGAA | 0.141

Sequence | PBM E-score
CACGTCCC | -0.326
AAATACCG | 0.18
AGGCCCAA | -0.065
CGCCACAG | -0.179
TTATAGAA | 0.216
AGCAGTCA | -0.0659
ATTGAAAG | 0.111
CCGAAATA | 0.254
CCTGTTTC | 0.0175
TACGACGA | 0.0508
GGGGCCCA | -0.372
CAAATCAG | 0.0133
CATTCCGA | 0.15
CTGATAGC | -0.0429
GGCTCATA | -0.00879
AGCACCTC | 0.0336
CCTAAATA | 0.118
ACCCCAAA | 0.0335
ATATTTCA | 0.255
AACAAGGG | -0.0261
AAACAAAC | 0.229
CGCATCAA | 0.104
AAAATGGT | 0.319
CTCCCAAA | -0.0178
AAGATCTG | -0.0306

Sequence | PBM E-score
ATTGACCC | 0.0147
ACTCAACG | -0.0931
ATAGGTGG | -0.108
ACTTAAGG | 0.0158
ACGGCGCT | -0.218
AACGACGA | 0.179
GAGAGCTA | -0.0943
ACCGTACA | -0.00124
GAAGATGA | 0.0501
GTACGCCA | -0.147
ACTAAACG | 0.09
CTGACTAC | -0.104
AACGCGGC | -0.247
CCGGACAA | 0.0878
GACCTCCA | -0.263
TCCGGCGA | 0.0646
GGAGTATA | 0.0551
GTGATCGA | 0.0735
CGGTCTTC | -0.0816
CCCATGAG | -0.15
GGAAAGCC | -0.0161
ATGAATGA | 0.175
